# Source: a collection of fitness landscapes (doi:10.1126/science.1257360)
# Some of the results follow.
# B1: PhoQ; a variant is named by its letters at X, in order, P23837 (parent)
# chain: MKKLLRLFFPLSLRVRFLLATAAVVLVLSLAYGMVALIGYSVSFDKTTFRLLRGESNLFYTLAKWENNKLHVELPENIDKQSPTMTLIYDENGQLLWAQRDVPWLMKMIQPDWLKSNGFHEIEADVNDTSLLLSGDHSIQQQLQEVREDDDDAEMTHSVAVNVYPATSRMPKLTIVVVDTIPVELKSSYMVWSWFIYVLSANLLLVIPLLWVAAWWSLRPIEALAKEVRELEEHNRELLNPATTRELTSLVRNLNRLLKSERERYDKYRTTLTDLTHSLKTPLXXLQXXLRSLRSEKMSVSDAEPVMLEQISRISQQIGYYLHRASMRGGTLLSRELHPVAPLLDNLTSALNKVYQRKGVNISLDISPEISFVGEQNDFVEVMGNVLDNACKYCLEFVEISARQTDEHLYIVVEDDGPGIPLSKREVIFDRGQRVDTLRPGQGVGLAVAREITEQYEGKIVAGESMLGGARMEVIFGRQHSAPKDE
# Variants of: B1
# Test: enrichment ratio after two sorts for PhoP signalling (ratio (wild type AVST 3.29)); higher = more functional
# Details: with PhoP (E. coli)
row,Variant,enrichment ratio
1,RDSV,≤ 0.25
2,QDRY,≤ 0.25
3,AWLE,≤ 0.25
4,ECLK,≤ 0.25
5,FDKI,≤ 0.25
6,IPFG,≤ 0.25
7,VDGC,≤ 0.25
8,IDFC,≤ 0.25
9,WVIY,≤ 0.25
10,SNES,≤ 0.25
11,ITYY,≤ 0.25
12,TVMK,2
13,DLSW,≤ 0.25
14,ITQY,≤ 0.25
15,LWDW,≤ 0.25
16,DGKV,≤ 0.25
17,SLIC,≤ 0.25
18,TTWE,≤ 0.25
19,YHML,≤ 0.25
20,FQNY,≤ 0.25
21,KCPL,≤ 0.25
22,VWDK,≤ 0.25
23,RYNK,≤ 0.25
24,QEQH,≤ 0.25

row,Variant,enrichment ratio
1,WGPW,≤ 0.25
2,YDCK,≤ 0.25
3,RNGL,≤ 0.25
4,MFTQ,≤ 0.25
5,MSLQ,10
6,ARQS,≤ 0.25
7,APWF,≤ 0.25
8,FHES,≤ 0.25
9,LFMH,≤ 0.25
10,ADCM,10.2
11,YIGP,≤ 0.25
12,AHCV,≤ 0.25
13,MLNG,≤ 0.25
14,HFMR,≤ 0.25
15,WIYS,≤ 0.25
16,FDVN,≤ 0.25
17,DLLD,≤ 0.25
18,FFTA,≤ 0.25
19,GRFF,≤ 0.25
20,NTAI,≤ 0.25
21,IDQV,≤ 0.25
22,GHWK,≤ 0.25
23,YGYT,≤ 0.25
24,EVYQ,≤ 0.25

row,Variant,enrichment ratio
1,HDKM,≤ 0.25
2,ILTP,≤ 0.25
3,DFVG,≤ 0.25
4,HGTS,≤ 0.25
5,SGEY,≤ 0.25
6,FQQE,≤ 0.25
7,GDPT,≤ 0.25
8,WYSW,≤ 0.25
9,HDEP,≤ 0.25
10,RIYI,≤ 0.25
11,MMLM,≤ 0.25
12,SDDD,≤ 0.25
13,RFFP,≤ 0.25
14,DMPN,≤ 0.25
15,TLLE,≤ 0.25
16,DISR,≤ 0.25
17,AMTW,6.78
18,YVGN,≤ 0.25
19,RWIV,≤ 0.25
20,MQTN,≤ 0.25
21,FSDD,≤ 0.25
22,FINM,≤ 0.25
23,LVYR,≤ 0.25
24,EPIL,≤ 0.25

row,Variant,enrichment ratio
1,MIMV,≤ 0.25
2,AGFH,≤ 0.25
3,RSPS,≤ 0.25
4,VMPE,≤ 0.25
5,YKQP,≤ 0.25
6,AMCR,8.85
7,INMK,≤ 0.25
8,PAPE,≤ 0.25
9,AFTR,≤ 0.25
10,NCSG,≤ 0.25
11,ESDC,≤ 0.25
12,TDLL,11.8
13,SYVC,0.486
14,IWVA,≤ 0.25
15,FWTR,≤ 0.25
16,NPAP,≤ 0.25
17,IDPP,≤ 0.25
18,PNDR,≤ 0.25
19,GKYN,≤ 0.25
20,NLVE,≤ 0.25
21,RVLA,≤ 0.25
22,WAQP,≤ 0.25
23,ARDN,≤ 0.25
24,GAEL,≤ 0.25

row,Variant,enrichment ratio
1,ADCK,≤ 0.25
2,WLSC,≤ 0.25
3,TEPQ,≤ 0.25
4,RHSG,≤ 0.25
5,SHDP,≤ 0.25
6,ITGH,≤ 0.25
7,AWTD,≤ 0.25
8,NPPQ,≤ 0.25
9,QFNP,≤ 0.25
10,AISN,10
11,PQIR,≤ 0.25
12,RVIA,≤ 0.25
13,ALWT,≤ 0.25
14,IFCV,≤ 0.25
15,LWPD,≤ 0.25
16,YVKY,≤ 0.25
17,NHCD,≤ 0.25
18,ASYD,≤ 0.25
19,AFTD,≤ 0.25
20,VWSP,≤ 0.25
21,LDTP,≤ 0.25
22,NYPL,≤ 0.25
23,SFHP,≤ 0.25
24,PYFK,≤ 0.25

row,Variant,enrichment ratio
1,QHDC,10.5
2,HVWN,≤ 0.25
3,EEQC,≤ 0.25
4,ATQF,≤ 0.25
5,SFAP,≤ 0.25
6,EFGM,0.76
7,KIFG,≤ 0.25
8,VFLF,≤ 0.25
9,ATAS,4.65
10,RRMV,≤ 0.25
11,RHMA,≤ 0.25
12,MLHW,≤ 0.25
13,CPYP,≤ 0.25
14,MGVQ,≤ 0.25
15,NLIA,≤ 0.25
16,HYEN,≤ 0.25
17,WFVE,≤ 0.25
18,VLYP,≤ 0.25
19,VLWG,≤ 0.25
20,KGMI,≤ 0.25
21,TKWV,4.41
22,DAMA,≤ 0.25
23,HLEH,≤ 0.25
24,ETGA,≤ 0.25

row,Variant,enrichment ratio
1,SKGY,≤ 0.25
2,YMLE,≤ 0.25
3,SSVC,9.35
4,TQEH,≤ 0.25
5,QFDV,≤ 0.25
6,PQPG,≤ 0.25
7,LRFL,≤ 0.25
8,SKAV,4.49
9,QTND,≤ 0.25
10,VGMY,≤ 0.25
11,QWIS,≤ 0.25
12,LRSC,≤ 0.25
13,KYGA,≤ 0.25
14,NYGG,≤ 0.25
15,ARID,≤ 0.25
16,LLMD,≤ 0.25
17,TVQK,15.5
18,KYRP,≤ 0.25
19,STMA,4.9
20,YVPF,≤ 0.25
21,ERVR,≤ 0.25
22,AGEP,≤ 0.25
23,LPSG,≤ 0.25
24,LDGP,≤ 0.25

row,Variant,enrichment ratio
1,MFEM,≤ 0.25
2,SYFT,≤ 0.25
3,NTEA,≤ 0.25
4,HGRH,≤ 0.25
5,IPMT,≤ 0.25
6,WHRK,≤ 0.25
7,WRHT,≤ 0.25
8,PAGF,≤ 0.25
9,IPGF,≤ 0.25
10,NHFQ,≤ 0.25
11,HWKC,≤ 0.25
12,TNWL,≤ 0.25
13,WIKR,≤ 0.25
14,QQPG,≤ 0.25
15,RMNS,≤ 0.25
16,TYFQ,≤ 0.25
17,EIRF,≤ 0.25
18,PSMP,≤ 0.25
19,RHYC,≤ 0.25
20,GIGF,10.9
21,LMRF,≤ 0.25
22,DYIN,≤ 0.25
23,TPKN,≤ 0.25
24,YLNP,≤ 0.25

row,Variant,enrichment ratio
1,SQAI,15.1
2,WGLE,≤ 0.25
3,RCEN,≤ 0.25
4,KYHI,≤ 0.25
5,LEMG,11.8
6,MILH,0.967
7,FMFE,≤ 0.25
8,RSTK,≤ 0.25
9,FIVF,≤ 0.25
10,PPAN,≤ 0.25
11,IKEE,≤ 0.25
12,VMKR,≤ 0.25
13,SEIY,21.5
14,TNPI,≤ 0.25
15,VDGH,≤ 0.25
16,MIRV,≤ 0.25
17,YSKN,≤ 0.25
18,KHSC,≤ 0.25
19,TCGG,21.5
20,YITN,≤ 0.25
21,HWDA,≤ 0.25
22,YIHI,≤ 0.25
23,TYIE,≤ 0.25
24,MQIE,≤ 0.25

row,Variant,enrichment ratio
1,HPHE,≤ 0.25
2,VQIV,0.303
3,QLKR,≤ 0.25
4,DYFK,≤ 0.25
5,PNPN,≤ 0.25
6,AYQF,≤ 0.25
7,GSSA,3.54
8,VFEP,≤ 0.25
9,PWYK,≤ 0.25
10,DIYQ,≤ 0.25
11,YPHG,≤ 0.25
12,HPYI,≤ 0.25
13,TTAG,6.99
14,WSQE,≤ 0.25
15,WHYD,≤ 0.25
16,VYTG,≤ 0.25
17,KCGG,≤ 0.25
18,ADQF,≤ 0.25
19,IYMG,≤ 0.25
20,WKGS,≤ 0.25
21,QATC,≤ 0.25
22,WAMP,≤ 0.25
23,FSYN,≤ 0.25
24,KISM,≤ 0.25

row,Variant,enrichment ratio
1,PDRQ,≤ 0.25
2,FRNK,≤ 0.25
3,TMIK,≤ 0.25
4,INFD,≤ 0.25
5,PKYC,≤ 0.25
6,LRAN,≤ 0.25
7,NVGG,≤ 0.25
8,TQDF,2.27
9,YWNI,≤ 0.25
10,RTNF,≤ 0.25
11,QYLV,≤ 0.25
12,LDCN,≤ 0.25
13,ADVK,≤ 0.25
14,LDYY,≤ 0.25
15,ASGP,≤ 0.25
16,VHIQ,≤ 0.25
17,DQRG,≤ 0.25
18,TTCE,8.85
19,NKCG,≤ 0.25
20,LEEH,≤ 0.25
21,ANES,≤ 0.25
22,FCGY,≤ 0.25
23,YQVI,≤ 0.25
24,LKYF,≤ 0.25

row,Variant,enrichment ratio
1,ECNC,≤ 0.25
2,LPGT,≤ 0.25
3,LSFA,≤ 0.25
4,PVIC,≤ 0.25
5,ICLV,18.8
6,IYEC,≤ 0.25
7,QEPG,≤ 0.25
8,IAVR,≤ 0.25
9,QKCC,≤ 0.25
10,TTRM,1.07
11,VGSE,≤ 0.25
12,LPGA,≤ 0.25
13,FYVR,≤ 0.25
14,GMKV,≤ 0.25
15,HWDW,≤ 0.25
16,LHYD,≤ 0.25
17,GNVN,≤ 0.25
18,DGHF,≤ 0.25
19,GYRT,≤ 0.25
20,PAYY,≤ 0.25
21,VMMG,≤ 0.25
22,GFYR,0.293
23,PMPS,≤ 0.25
24,TSTM,25.6

row,Variant,enrichment ratio
1,FSHT,≤ 0.25
2,DNIA,≤ 0.25
3,PRSF,≤ 0.25
4,GHVM,≤ 0.25
5,LFPQ,≤ 0.25
6,MDEI,≤ 0.25
7,KCIQ,≤ 0.25
8,HWLI,≤ 0.25
9,WEPS,≤ 0.25
10,MGCW,≤ 0.25
11,KIWK,≤ 0.25
12,QHFT,≤ 0.25
13,YMYR,≤ 0.25
14,GLRL,≤ 0.25
15,VCSV,0.913
16,SCTD,≤ 0.25
17,WSTS,≤ 0.25
18,KESV,≤ 0.25
